Laboratory results published in paper PMC9911399, “Two distinct binding modes provide the RNA-binding protein RbFox with extraordinary sequence specificity”.
Substitutions are numbered along the chain they refer to; changes in the protein carry UniProt numbers. Some of the results follow.

B1: GUAUUUC (DNA:RNA)
RNA: GGGAGACCGGAAUUCAGAUUGUCCGUAUUUCUUAAAUCCCGUCGUAGCCACCA
DNA 1: CAATCTGAATTCCGGTCTCCC
DNA 2: TGGTGGCTACGACGGGATT
B2: UACGCAC (DNA:RNA)
RNA: B1 RNA with G25U, U26A, A27C, U28G, U29C, U30A
DNA 1: CAATCTGAATTCCGGTCTCCC
DNA 2: TGGTGGCTACGACGGGATT
B3: CGGAUCG (DNA:RNA)
RNA: B1 RNA with G25C, U26G, A27G, U28A, U30C, C31G
DNA 1: CAATCTGAATTCCGGTCTCCC
DNA 2: TGGTGGCTACGACGGGATT
B4: CAUCUCC (DNA:RNA)
RNA: B1 RNA with G25C, U26A, A27U, U28C, U30C
DNA 1: CAATCTGAATTCCGGTCTCCC
DNA 2: TGGTGGCTACGACGGGATT
B5: AAACCUG (DNA:RNA)
RNA: B1 RNA with G25A, U26A, U28C, U29C, C31G
DNA 1: CAATCTGAATTCCGGTCTCCC
DNA 2: TGGTGGCTACGACGGGATT
B6: CCUGAGU (DNA:RNA)
RNA: GGGAGACCGGAAUUCAGAUUGUCCCCUGAGUUUAAAUCCCGUCGUAGCCACCA
DNA 1: CAATCTGAATTCCGGTCTCCC
DNA 2: TGGTGGCTACGACGGGATT
B7: AGAGAGC (DNA:RNA)
RNA: B6 RNA with C25A, C26G, U27A, U31C
DNA 1: CAATCTGAATTCCGGTCTCCC
DNA 2: TGGTGGCTACGACGGGATT
B8: UGACAUG (DNA:RNA)
RNA: B1 RNA with G25U, U26G, U28C, U29A, C31G
DNA 1: CAATCTGAATTCCGGTCTCCC
DNA 2: TGGTGGCTACGACGGGATT
B9: GGCAUGG (DNA:RNA)
RNA: B1 RNA with U26G, A27C, U28A, U30G, C31G
DNA 1: CAATCTGAATTCCGGTCTCCC
DNA 2: TGGTGGCTACGACGGGATT
B10: AGCGUCC (DNA:RNA)
RNA: B1 RNA with G25A, U26G, A27C, U28G, U30C
DNA 1: CAATCTGAATTCCGGTCTCCC
DNA 2: TGGTGGCTACGACGGGATT
B11: AGUGACC (DNA:RNA)
RNA: B6 RNA with C25A, C26G, G30C, U31C
DNA 1: CAATCTGAATTCCGGTCTCCC
DNA 2: TGGTGGCTACGACGGGATT
B12: CUCCACC (DNA:RNA)
RNA: B6 RNA with C26U, U27C, G28C, G30C, U31C
DNA 1: CAATCTGAATTCCGGTCTCCC
DNA 2: TGGTGGCTACGACGGGATT
B13: UUGCCAA (DNA:RNA)
RNA: B1 RNA with G25U, A27G, U28C, U29C, U30A, C31A
DNA 1: CAATCTGAATTCCGGTCTCCC
DNA 2: TGGTGGCTACGACGGGATT
B14: AUAAAAA (DNA:RNA)
RNA: B1 RNA with G25A, U28A, U29A, U30A, C31A
DNA 1: CAATCTGAATTCCGGTCTCCC
DNA 2: TGGTGGCTACGACGGGATT
B15: UACCGGA (DNA:RNA)
RNA: B6 RNA with C25U, C26A, U27C, G28C, A29G, U31A
DNA 1: CAATCTGAATTCCGGTCTCCC
DNA 2: TGGTGGCTACGACGGGATT
B16: UGGGGCU (DNA:RNA)
RNA: B6 RNA with C25U, C26G, U27G, A29G, G30C
DNA 1: CAATCTGAATTCCGGTCTCCC
DNA 2: TGGTGGCTACGACGGGATT
B17: UUGUCGU (DNA:RNA)
RNA: B6 RNA with C25U, C26U, U27G, G28U, A29C
DNA 1: CAATCTGAATTCCGGTCTCCC
DNA 2: TGGTGGCTACGACGGGATT
B18: CCGUCGC (DNA:RNA)
RNA: B6 RNA with U27G, G28U, A29C, U31C
DNA 1: CAATCTGAATTCCGGTCTCCC
DNA 2: TGGTGGCTACGACGGGATT
B19: UCAAAAA (DNA:RNA)
RNA: B6 RNA with C25U, U27A, G28A, G30A, U31A
DNA 1: CAATCTGAATTCCGGTCTCCC
DNA 2: TGGTGGCTACGACGGGATT
B20: UGCUGCC (DNA:RNA)
RNA: B1 RNA with G25U, U26G, A27C, U29G, U30C
DNA 1: CAATCTGAATTCCGGTCTCCC
DNA 2: TGGTGGCTACGACGGGATT

Each binder was assayed against T1, RBFOX1 RRM (Homo sapiens, UniProt Q9NWB1 109-208) (assay: EMSA; HiTS-Eq, 1 nM pool, 10 min; buffer printed only for the single-RNA assays: 10 mM Tris pH 7.5, 150 mM NaCl, 3.4 mM EDTA, 0.001% NP-40, 30 C). Settings: tags: His6 N-terminal (pET28a); label: 5' 32P.
T1 sequence: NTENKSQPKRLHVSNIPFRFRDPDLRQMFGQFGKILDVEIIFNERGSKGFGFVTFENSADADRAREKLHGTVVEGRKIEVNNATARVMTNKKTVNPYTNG
Summary of the method: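 These values rest on relative association constants, computed from read-count changes of each RNA species versus the control reaction and normalised to the cognate motif. Reads came from free RNA recovered by 8% native PAGE after purified RbFox RRM (wild type or mutant) at increasing concentrations was equilibrated for 10 min in 50 µL with 1 nM of a 5′-radiolabelled pool with 7 randomized nucleotides and DNA-annealed flanks.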

Row | Binder | binding signal
1 | B1 | 0.00965 KA relative to UGCAUGU
2 | B2 | 0.00932 KA relative to UGCAUGU
3 | B3 | 0.0358 KA relative to UGCAUGU
4 | B4 | 0.00467 KA relative to UGCAUGU
5 | B5 | 0.00336 KA relative to UGCAUGU
6 | B6 | 0.01 KA relative to UGCAUGU
7 | B7 | 0.00925 KA relative to UGCAUGU
8 | B8 | 0.0186 KA relative to UGCAUGU
9 | B9 | 0.104 KA relative to UGCAUGU
10 | B10 | 0.00856 KA relative to UGCAUGU
11 | B11 | 0.00568 KA relative to UGCAUGU
12 | B12 | 0.00389 KA relative to UGCAUGU
13 | B13 | 0.0126 KA relative to UGCAUGU
14 | B14 | 0.00125 KA relative to UGCAUGU
15 | B15 | 0.00211 KA relative to UGCAUGU
16 | B16 | 0.0267 KA relative to UGCAUGU
17 | B17 | 0.0256 KA relative to UGCAUGU
18 | B18 | 0.0119 KA relative to UGCAUGU
19 | B19 | 0.00186 KA relative to UGCAUGU
20 | B20 | 0.0265 KA relative to UGCAUGU
